# Among all 220,000 compounds or so, about 5,700 (2.6%) were called active. The inconclusive results got no clear call from the source; some entries with a clear call stand among them for comparison. The call rests on the fitted dose curve; in most records, active means well fitted inhibition curve with a large enough effect; inconclusive means small, poorly fitted or top-dose-only effect; inactive means no such curve, though single readings can be large or run the other way. Potencies of inconclusive entries are doubtful fits and often do not repeat.
# Target: Lysine-specific demethylase 5B (Homo sapiens) (UniProt Q9UGL1)
# Experiment: Primary screen for KDM5B Histone Demethylases FDH-coupled qHTS; further: nearly all actives have a fitted effect of over 70% in size; on activity change, negative = inhibition: 0% is about no effect
# Conditions: FDH-coupled NADH fluorescence (FDH is formaldehyde dehydrogenase); activity change, negative = inhibition: at 57.7 µM (top of the series) unless noted
# Method in brief: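 qHTS format, multiple compound concentrations. Buffer 50 mM HEPES pH 7.5/0.01% Tween-20; 200 nM KDM5BΔAP final; 10 min compound preincubation; substrate-mix levels 12.5 µM peptide, 25 µM α-KG, 0.25 mM NAD⁺; 30 min RT; ΔRFU.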
# Potency means the concentration at half of the fitted maximal effect; tags describe the fitted curve by direction and shape.
# UniProt Q9UGL1, sequence (Q9UGL1 whole entry, looked up): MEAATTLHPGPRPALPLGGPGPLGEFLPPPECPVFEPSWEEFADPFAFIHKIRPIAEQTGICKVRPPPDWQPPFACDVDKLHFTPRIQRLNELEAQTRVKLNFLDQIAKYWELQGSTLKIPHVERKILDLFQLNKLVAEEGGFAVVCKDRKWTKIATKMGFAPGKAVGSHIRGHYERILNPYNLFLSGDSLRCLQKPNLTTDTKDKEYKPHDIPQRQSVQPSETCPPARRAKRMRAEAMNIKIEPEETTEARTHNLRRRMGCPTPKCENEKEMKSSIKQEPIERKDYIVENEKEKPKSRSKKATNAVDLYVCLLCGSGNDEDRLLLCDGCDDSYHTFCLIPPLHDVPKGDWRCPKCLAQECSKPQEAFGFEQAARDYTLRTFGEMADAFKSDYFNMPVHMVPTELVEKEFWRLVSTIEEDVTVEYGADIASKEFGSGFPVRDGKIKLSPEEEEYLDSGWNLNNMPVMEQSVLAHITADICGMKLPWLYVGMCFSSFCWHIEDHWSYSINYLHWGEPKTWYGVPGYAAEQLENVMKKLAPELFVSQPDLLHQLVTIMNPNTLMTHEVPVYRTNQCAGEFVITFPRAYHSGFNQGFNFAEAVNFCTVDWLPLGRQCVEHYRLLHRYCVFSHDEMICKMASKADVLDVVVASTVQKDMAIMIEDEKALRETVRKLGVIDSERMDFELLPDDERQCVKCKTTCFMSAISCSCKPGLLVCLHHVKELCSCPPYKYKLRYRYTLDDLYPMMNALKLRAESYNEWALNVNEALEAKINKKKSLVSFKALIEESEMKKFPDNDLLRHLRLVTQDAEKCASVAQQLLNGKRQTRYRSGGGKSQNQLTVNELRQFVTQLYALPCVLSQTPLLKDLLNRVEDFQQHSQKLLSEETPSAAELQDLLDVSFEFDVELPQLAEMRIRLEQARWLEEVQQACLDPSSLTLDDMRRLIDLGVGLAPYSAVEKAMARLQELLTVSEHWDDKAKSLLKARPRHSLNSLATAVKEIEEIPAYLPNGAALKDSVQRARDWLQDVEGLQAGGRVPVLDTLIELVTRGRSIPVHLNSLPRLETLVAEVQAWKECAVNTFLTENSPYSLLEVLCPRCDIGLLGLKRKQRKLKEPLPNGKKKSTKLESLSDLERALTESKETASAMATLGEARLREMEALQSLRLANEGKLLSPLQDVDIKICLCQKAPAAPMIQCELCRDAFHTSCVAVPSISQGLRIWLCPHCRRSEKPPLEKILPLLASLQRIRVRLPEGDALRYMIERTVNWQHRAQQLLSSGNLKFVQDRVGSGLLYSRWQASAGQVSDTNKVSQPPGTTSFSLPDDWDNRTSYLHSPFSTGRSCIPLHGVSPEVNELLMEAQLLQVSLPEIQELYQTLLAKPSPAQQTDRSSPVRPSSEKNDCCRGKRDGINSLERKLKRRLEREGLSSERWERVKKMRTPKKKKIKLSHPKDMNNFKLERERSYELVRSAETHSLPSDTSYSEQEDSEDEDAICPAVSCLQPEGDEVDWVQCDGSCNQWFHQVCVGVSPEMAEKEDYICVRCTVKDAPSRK
Structure (SMILES),"activity change, negative = inhibition",Potency
CCCC1N=C2c3ccccc3N=C(SCC(=O)Nc3ccccc3)N2C1=O (centres undefined),inactive: -31.9%,
COc1ccccc1Cn1c(CNS(=O)(=O)c2ccc(Cl)s2)nc2cccnc21,,"inconclusive: 28.2 µM [inhibitor, single point]"
COc1ccc(C(=O)Nc2ccc3n(c2=O)C[C@H]2C[C@@H]3CN(S(=O)(=O)c3ccc(OC)cc3)C2)cc1,,"inconclusive: 39.8 µM [inhibitor, single point]"
CC12CC3CC(C)(C1)CC(c1ccc(O)cc1)(C3)C2,inactive: -16%,
Cc1ccc(C(=O)/C(C#N)=C/c2ccccc2OCc2ccc(Br)cc2)cc1,inactive: 12%,
COc1ccc(NC(=O)CSc2nc3ccsc3c(=O)n2-c2ccccc2)cc1,,"inconclusive: 39.8 µM [inhibitor, single point]"
Cc1ccc(-c2nc3ccc(Br)cn3c2Nc2ccc3c(c2)OCO3)o1,,"inconclusive: 15.8 µM [inhibitor, partial curve, poor fit]"
Cn1c(Cn2cccn2)nnc1C1CC(NC(=O)CN2CCCCCCC2)C1 (centres undefined),,"inconclusive: 14.1 µM [inhibitor, partial curve, poor fit]"
COc1ccc(CNC2(Cc3cc(C(=O)N4CCCCC4)on3)COC2)cc1,,"inconclusive: 35.5 µM [inhibitor, single point]"
CCOc1ccc(NC(=O)CSc2nc3nc(C)c(Cc4ccccc4)c(C)n3n2)cc1,,"inconclusive: 39.8 µM [inhibitor, single point]"
CC(=O)c1ccc(NC(=O)CN2C(=O)c3cccnc3Sc3ccccc32)cc1,,"inconclusive: 35.5 µM [inhibitor, partial curve, poor fit]"
CC(C)CC(NC(=O)/C(=C/c1ccco1)NC(=O)c1ccc(Br)o1)C(=O)O (centres undefined),,"inconclusive: 39.8 µM [inhibitor, single point]"
Cc1nc2sc3c(c2c2nc(C(=O)NCc4ccco4)nn12)CC(C)(C)OC3,,"inconclusive: 14.1 µM [inhibitor, partial curve, poor fit]"
CCC1CCCCN1CCCNC(=O)c1ccc2c(c1)N(Cc1cccc(C)c1)C(=O)c1ccccc1S2(=O)=O (centres undefined),,"inconclusive: 8.91 µM [inhibitor, partial curve, poor fit]"
Cc1ccc(-c2nc(C3CC(=O)N(c4ccc(F)c(Cl)c4)C3)no2)cc1C (centres undefined),inactive: -4.41%,
Cc1ccc(CNC(=O)CC2CCCN(c3cnn(C)c(=O)c3)C2)cc1 (centres undefined),inactive: 7.52%,
COc1ccc(-c2ccnc(N[C@H]3CO[C@H]4[C@@H]3OC[C@H]4OCC(N)=O)n2)cc1,,active: 31.6 µM
COc1ccc(Cl)cc1NC(=O)c1cc(-c2ccc[nH]2)n[nH]1,,"inconclusive: 28.2 µM [inhibitor, partial curve]"
COc1ccccc1CNC(=O)C1CCN(c2nn3c(=O)cc(C)nc3s2)CC1,inactive: -34.6%,
Brc1ccc(-c2ccnc3nc(C4CCCO4)nn23)s1 (centres undefined),inactive: -7020%,
O=C(O)[C@@H]1CCCC[C@@H]1C(=O)N1CCOCC1,inactive: 0.72%,
COC(=O)c1ccc(NC(=O)N2CCc3c([nH]c4ccccc34)C2c2ccc(C)cc2)cc1 (centres undefined),,"inconclusive: 1 µM [inhibitor, full curve, poor fit]"

Structure (SMILES),"activity change, negative = inhibition",Potency
CC1(COc2ccccc2)COc2ccc(C(=O)NCc3ccccc3)cc2N1 (centres undefined),,"inconclusive: 39.8 µM [inhibitor, partial curve, poor fit]"
Cn1nc(C(=O)N2CCC(Oc3ccc(-c4noc(C5CC5)n4)cc3)C2)c2ccccc21 (centres undefined),,"inconclusive: 11.2 µM [inhibitor, partial curve, poor fit]"
COc1cccc(-n2cc(C(=O)NCCc3cccc(C)c3)c3ccccc3c2=O)c1,,"inconclusive: 25.1 µM [inhibitor, partial curve, poor fit]"
COC(=O)C1=C(C)N=C2SC=C(CC(=O)NC3CCCCC3)N2C1c1cccc(OC)c1 (centres undefined),,"inconclusive: 20 µM [inhibitor, partial curve]"
COc1ccc2oc(C(=O)OCC(=O)NC(=O)c3ccccc3)c(C)c2c1,,"inconclusive: 28.2 µM [inhibitor, partial curve, poor fit]"
Cc1ccc(C(=O)O/N=C(\c2ccccc2)c2ccccn2)cc1,,"inconclusive: 14.1 µM [inhibitor, partial curve, poor fit]"
Cc1ccc(CCNC(=O)c2cc3n(n2)CC(c2ccc4c(c2)OCO4)OC3)cc1 (centres undefined),,active: 25.1 µM
COc1cnc(CSc2ncccn2)cc1OCC(=O)N1CCCc2ccccc21,inactive: 5.8%,
CSc1ccc(CCNC(=O)c2sc3ncccc3c2-n2cccc2)cc1,,"inconclusive: 28.2 µM [inhibitor, partial curve, poor fit]"
CN(C)C(=O)c1cccn2cncc12,,"inconclusive: 39.8 µM [inhibitor, partial curve, poor fit]"
CCn1cc(C(=O)NC2CCN(S(C)(=O)=O)CC2)c2ccccc21,inactive: 24.4%,
COc1ccc2c(c1)OCC(C(=O)NCc1noc(-c3ccco3)n1)C2 (centres undefined),,"inconclusive: 28.2 µM [inhibitor, single point]"
CCCC(=O)N(c1ccc(OCC)cc1)S(=O)(=O)c1ccc2c3c(cccc13)C(=O)N2C,,"inconclusive: 28.2 µM [inhibitor, partial curve, poor fit]"
Cc1cccc(-n2c(SCC(=O)Nc3ccccc3Cl)nc3n[nH]c(C)c3c2=N)c1,,"inconclusive: 39.8 µM [inhibitor, single point]"
O=C(N1CC(Oc2cccc(-c3nc(-c4ccccc4)no3)c2)C1)C1(c2ccccc2)CC1,,"inconclusive: 39.8 µM [inhibitor, partial curve, poor fit]"
O=CN1CCN(C(=O)CCn2c(-c3ccccc3)cc3ccccc32)CC1,,"inconclusive: 28.2 µM [inhibitor, partial curve, poor fit]"
Cn1c(=O)c2c(nc(NCCCN3CCOCC3)n2Cc2ccccc2)n(C)c1=O,inactive: 6.62%,
COc1cccc(CNC(=O)c2cc(-c3cccs3)nc3ccccc23)c1,,"inconclusive: 3.16 µM [inhibitor, full curve, poor fit]"
COc1ccc(S(=O)(=O)N[C@H]2C[C@@H](c3nc(-c4ccc(OC(F)(F)F)cc4)no3)N(C)C2)cc1,,"inconclusive: 10 µM [inhibitor, partial curve]"
COc1ccc(-c2ocnc2C(=O)Nc2ccc(C)cc2)cc1,inactive: 14.1%,
COc1ccc(Cn2c(C(=O)O)c(CNC3CCC(C)CC3)c3ccc(C)cc32)cc1 (centres undefined),,"inconclusive: 17.8 µM [inhibitor, partial curve, poor fit]"
Cc1ccc(C)c(NC(=O)CCCc2ccccc2)c1,inactive: -2.44%,

Structure (SMILES),"activity change, negative = inhibition",Potency
O=C(NC1CCN(c2cc(-c3cccs3)[nH]n2)C1)c1ccccc1Br (centres undefined),,active: 25.1 µM
Cn1nnnc1C1CCCN(C(=O)c2ccc3cc[nH]c3c2)C1 (centres undefined),,active: 20 µM
CCCN1C(=O)C(CC(=O)N2CCCC2)Sc2ncccc21 (centres undefined),,"inconclusive: 28.2 µM [inhibitor, single point]"
Cc1ccc2c(CN(C)CCOc3ccccc3F)cc(=O)oc2c1C,inactive: -8.52%,
Nc1ccc2c(N3CCCCC3)ncnc2c1,,"inconclusive: 14.1 µM [inhibitor, partial curve]"
CN(C)c1cccc(C(=O)N[C@@H]2COCC[C@H]2Oc2ccc(CO)cc2)c1,,"inconclusive: 20 µM [inhibitor, partial curve, poor fit]"
Cc1ccc(-n2ncc3c(N4CCN(C)CC4)ncnc32)cc1,,"inconclusive: 17.8 µM [inhibitor, partial curve, poor fit]"
C[C@H](O)[C@@H]1CN2CCc3c([nH]c4c(-c5ccc6c(c5)OCO6)cccc34)[C@@H]2C[C@@H]1N(C)C(=O)Nc1ccccc1,,"inconclusive: 25.1 µM [inhibitor, partial curve, poor fit]"
COc1ccc(NC(=O)c2ccc3c(c2)n(C)c(=O)c2ccnn23)cc1OC,,"inconclusive: 31.6 µM [inhibitor, single point]"
COCc1nc2nccc(-c3ccsc3)n2n1,,active: 28.2 µM
COc1ccc(NC(=O)c2c(NCc3cccc(OC)c3)sc3c2CCC3)cc1,,"inconclusive: 35.5 µM [inhibitor, single point]"
Cc1ccc(C(=O)NC2CCN(c3cc(-c4cccs4)[nH]n3)C2)cc1 (centres undefined),,"inconclusive: 11.2 µM [inhibitor, partial curve]"
COc1ccccc1C(=O)N1CCN(c2oc(-c3ccccc3)nc2C#N)CC1,,"inconclusive: 3.16 µM [inhibitor, full curve, poor fit]"
CCc1ccc(S(=O)(=O)Nc2cc(-c3cn4ccccc4n3)ccc2C)cc1,,"inconclusive: 12.6 µM [inhibitor, partial curve, poor fit]"
O=C(Nc1ccccc1)O[C@@H]1CO[C@H]2[C@@H]1OC[C@@H]2n1nnnc1SCc1ccco1,,active: 35.5 µM
CCCOCCCNC(=O)c1c(C)noc1-c1cc(OC)cc(OC)c1,,"inconclusive: 31.6 µM [inhibitor, partial curve, poor fit]"
CN1Cc2cccn2CC1CNC(=O)c1cc(CN2CCOCC2)on1 (centres undefined),,active: 17.8 µM
COc1ccccc1-c1cc(Nc2ccc(N3CCOCC3)cc2)c2onc(C)c2n1,,"inconclusive: 39.8 µM [inhibitor, partial curve, poor fit]"
COc1cccc(Nc2cc(-c3ccccc3)nc(C)n2)c1,,"inconclusive: 22.4 µM [inhibitor, partial curve, poor fit]"
O=C(c1cc(Cl)ccc1F)N1CCN(C(=O)c2nnn3c2COC(c2ccccc2)C3)CC1 (centres undefined),inactive: -2.67%,

# Reference: PubChem BioAssay AID1347165 (National Center for Advancing Translational Sciences (NCATS), 2019)
